The values below come from the supplement of paper PMC11417369.

Some of the results follow.

The assay relates to PF3D7_0420300 AP2 domain 1 (GST-tagged). Put plainly: gcPBM binding intensity (ln(normalized median fluorescence intensity)); higher = stronger DNA binding. In outline:
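After 1 h on an Agilent 4 × 180k array of primer-extended double-stranded 36-bp intergenic genomic probes and negative controls, bound GST-tagged P. falciparum DNA-binding domains were detected with Alexa488 anti-GST antibody and scanned at 488 nm. The domains had been expressed in E. coli, and binding took place in 1× PBS with 1% milk, 0.2 mg/ml BSA, 0.5% salmon testes DNA and 0.03% Triton X-100. Binding intensity is the highest Masliner-normalised natural-log median intensity across replicate spots of either probe orientation.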
In the case of “ATTTTTTCTTTTTTTTTTCCGTTTTTTTGGACATTT [CACACA_negctrl_site1174]”, the “gcPBM binding intensity (ln)” value was determined as 9.45.

Regarding “ATAAAAATAAAAGACGCATGTTCTTAAAATAAGAAC [TGCATGCA_site189]”, the “gcPBM binding intensity (ln)” value stood at 9.33. The same measure for “ATATATATATATAATGCACACATTATGAATTATGTA [CACACA_site3384]”: 9.25; for “AAACAAAATGGTAACACACACATATATATATATATA [CACACA_site1939]”: 9.77; for “GTGTGATCTTTTGAAAGTACATTTTTTTTTTTTTTT [XGTACX_site6311]”: 9.08.

In the case of “AGGTCATACATAAAATGTACATATATATAAATATAT [XGTACX_site7147]”, the “gcPBM binding intensity (ln)” value stood at 9.21. For the sequence “TGAACACCCAAATACACACACTCAAAAAAAAAAAAG [CACACA_site5467]”, the “gcPBM binding intensity (ln)” value was 9.65.

Turning to “ACAAGAATACACCACGCACACACACTAGAGAAAAAA [CACACA_site9276]”, the “gcPBM binding intensity (ln)” value came to 9.92. Then “TAATAAAGTATTTTGCGTACTTATTTTATTCTTCTA [XGTACX_site2095]”, with 9.19; and “GCCCCCAAATTATGTGTGCACTTTATATTCCTGAGA [GTGCAC_site9474]”, with 9.69. As for “TGGCATATATATAAATGTACTTTCTTTCTATCTGTT [XGTACX_site8483]”, the “gcPBM binding intensity (ln)” value stood at 9.34. The same measure for “ATTGTGTGAACAAAATGTACATTTTCTCTACATTAA [XGTACX_site1333]”: 9.12; for “TTATATATATGTAATTGTACTTTTAATTTTTTTTTA [XGTACX_site4357]”: 9.19. With “TAATTTTTTTTAAATACACACTGAAATGTGAATTTT [CACACA_site4476]”, the “gcPBM binding intensity (ln)” value amounted to 8.96. As for “TATTTTATAATAGGCACACATATAAAAATATATATA [CACACA_site4127]”, the “gcPBM binding intensity (ln)” value worked out at 9.06. Turning to “TCATGTAACCATTCATGTACTCAAAAAAAAAAAAAA [XGTACX_site1027]”, the “gcPBM binding intensity (ln)” value turned out to be 8.76.

In the case of “TTTTTTATGATTAACACACACACAAAAAAAAAAAAA [CACACA_site4130]”, the “gcPBM binding intensity (ln)” value stood at 9.52. On to “AAAAAAAAAACAAATACACACGCACCCAAAAAAAAA [CACACA_site8166]”, for which the “gcPBM binding intensity (ln)” value worked out at 9.81. Then “AAATGAAAGAACAGCACACATATATATTATATATAA [CACACA_site2002]”, with 9.63; and “AACATATTTTTTCTTAAACACACACCGATATATATA [CACACA_site8919]”, with 9.64; and “AATATATATTTCTAAGATAAAACCCAAGGATAAAAA [CACACA_negctrl_site735]”, with 9.3. Then “TCTGTAAATATGTATACACACATATCTGATCAATAT [CACACA_site5743]”, with 9.56. Then “AATTAATTTATTTTATAAATAGTTAGATCGTCATAA [GTGCAC_negctrl_site660]”, with 8.87; and “ATTTCATTAAAGATTACATGCAATTCTATATTATTT [TGCATGCA_site260]”, with 9.17.

For “AACATAAATTACTTTTTACACACTAATATAAAATAC [CACACA_site8297]”, the “gcPBM binding intensity (ln)” value worked out at 9.42. Regarding “AATTGCTCGATATATGCACACAGTTTTGTTATTTTT [CACACA_site8465]”, the “gcPBM binding intensity (ln)” value amounted to 9.79. With “AAAACACGCGGACACACACACACACGCCCACATATA [CACACA_site7105]”, the “gcPBM binding intensity (ln)” value worked out at 10.4. The same measure for “ACTTTCAAGGATGTACGTACATATGTATTTTATAAC [XGTACX_site6714]”: 9.26. The same measure for “ATTTCTCTATAGTAATGTACAAAAAAAAGGAAAAAG [XGTACX_site2757]”: 9.26; for “ACATAAAATAAATATACACACATATGTATTTATTAT [CACACA_site5648]”: 9.51; for “AAACCGAATTTACATGAATGTAAATTATGTTGTTTT [CACACA_negctrl_site1834]”: 9.22. “CAAGAATAAAAATACAAGCACACATGTATGAAATAT [CACACA_site3214]”: the “gcPBM binding intensity (ln)” value worked out at 9.8. As for “ATATACATATGTGTGTGTACTTATATCACATTTTTG [XGTACX_site3785]”, the “gcPBM binding intensity (ln)” value is 9.71.

For the sequence “TTATGGATAAATAAATGTACGTTAAGATAACACAAA [XGTACX_site4208]”, the “gcPBM binding intensity (ln)” value was 9.27. As for “TCGACAAAGGCATATACACACATTTGTAACATAAAT [CACACA_site4471]”, the “gcPBM binding intensity (ln)” value was found to be 9.44. The same measure for “GTTTTTTTGTTTTAGTGTACCTAAAACTGCATGTAG [XGTACX_site294]”: 9.41; for “TATATATATATATATTGTACATTTTTTTTTTTTTTT [XGTACX_site7891]”: 8.9. AATTTCAAATTGTATGTGCACATGTAGAAGTACTTT: the “gcPBM binding intensity (ln)” value came out at 9.39. Then “GTGCCTTTAAAAAAAAGTACAAAAAAGAACGAATTA [XGTACX_site3714]”, with 9.03; and “AAAAAAAAAAAAAGCACACACACATATGAGTATATA [CACACA_site4682]”, with 9.87; and “TTTTCATTAAATATATATGCATACCATATGTACATT [GTGCAC_negctrl_site539]”, with 9.28. As for “TATGTAAAGAGTAAGGGTACATGTATAATACGGCTC [XGTACX_site1283]”, the “gcPBM binding intensity (ln)” value was found to be 9.69. The same measure for “AAATACTATATCAAGCGTACTTATTTCATGGTAATA [XGTACX_site7878]”: 9.2; for “TTTAAAATATTTTCTTGTACGAAGGAACATTTCTTA [XGTACX_site4013]”: 9.03; for “TATTTAATTACATGAACACACATTATGTATTTTTAA [CACACA_site2962]”: 9.28. For the sequence “TTTTTATTTAATAATATATTAATCATATAAATAAAT [GTGCAC_negctrl_site210]”, the “gcPBM binding intensity (ln)” value amounted to 8.82. Take “TAAAAAAAAAAAACAAGTACATATATAAATATATAT [XGTACX_site7537]”: the “gcPBM binding intensity (ln)” value turned out to be 9.29.

For “TGTATGCATATTTGATGTACGCACATATACTAATTT [XGTACX_site3159]”, the “gcPBM binding intensity (ln)” value was found to be 9.28. In the case of “TTTATATAAAAAAATTGTACATATTTATTATAAACA [XGTACX_site2124]”, the “gcPBM binding intensity (ln)” value came to 8.93. Then “ATAATAAATAAAATAACACACATATATAGATATATA [CACACA_site6224]”, with 9.74; and “TATATTCTTATTATTGCATGCTGCACGAAGATTTTC [TGCATGCA_site831]”, with 9.07. The same measure for “GTATGTTTGTTATGCACACAAATGCATCTTATTTCC [CACACA_site2690]”: 9.61. Consider “CAAAATTTATGTAAAAGTACAAAAATATAGAAAGAT [XGTACX_site1122]”, for which the “gcPBM binding intensity (ln)” value is 9.47.

In the case of “TAATCGAAACAAAGAACATGCAAACATATACCTATA [TGCATGCA_site894]”, the “gcPBM binding intensity (ln)” value came to 9.6.

For “TGTGTTCATCTATGCACACGCATATATATTATTGTT [CACACA_site5985]”, the “gcPBM binding intensity (ln)” value was 9.47.

For the sequence “TTTTATTCCTTCTTTGCACACGTTTAAAAATATATA [CACACA_site2899]”, the “gcPBM binding intensity (ln)” value amounted to 9.52.

With “AATATAATATAAGGATCACACACAAACACCCATATA [CACACA_site8084]”, the “gcPBM binding intensity (ln)” value was determined as 9.9. Consider “ATTAAAAAAATTAAAAGTACACATATTTCAATGATA [XGTACX_site5606]”, for which the “gcPBM binding intensity (ln)” value came to 9.08.

As to “TAAGTTATATGTATATGTACTTATATATATATATAT [XGTACX_site5402]”, the “gcPBM binding intensity (ln)” value worked out at 9.02. The same measure for “TAAAAAAAAAAAAAAACACACATATAAATATATATA [CACACA_site1243]”: 9.34; for “AAAATTAAAAAGAACACACAAATATATCTATAATAA [CACACA_site7660]”: 9.58; for “TATTTTTTTTCTTATACACACCATGCATCAAACTAA [CACACA_site5208]”: 9.4. On to “TTTATATATATATATATATATAATAAATGATACACA [TGCATGCA_negctrl_site392]”, for which the “gcPBM binding intensity (ln)” value was determined as 9.04. Regarding “TTTGCACCGTTTAAGTGTACAGAATTATGACATATA [XGTACX_site6735]”, the “gcPBM binding intensity (ln)” value came to 9. Then “TCAAAAATATTCTGGAGTACCTTTTTAAAGGTATAG [XGTACX_site6893]”, with 8.79; and “TAAATATATATATACACACACATACACAAAAAAAAA [CACACA_site3580]”, with 10.1; and “TGTGGTTACATGTGCACACACTTATTTCGTTCTTAT [CACACA_site4907]”, with 9.82.

With “ATTGCATATAATGGCACACATAAATCCATAATATAT [CACACA_site297]”, the “gcPBM binding intensity (ln)” value stood at 9.29. As for “GCAGGATTGGTTCAAACACACATATTATATGACTAT [CACACA_site660]”, the “gcPBM binding intensity (ln)” value was determined as 9.48. For the sequence “TTTTTTTTTTTTTTTGCACACACATAATAGGTACAA [CACACA_site3578]”, the “gcPBM binding intensity (ln)” value came to 9.54. Take “ATCTTATATGATCACACACACACGCACAAAACAGAA [CACACA_site4913]”: the “gcPBM binding intensity (ln)” value worked out at 10.1. The same measure for “GCACATAAATATATGACACACACACCGATTATATAT [CACACA_site9003]”: 9.99; for “TTAATAAATAAAAATGCACACAGTTAACATGTTGAA [CACACA_site1200]”: 9.42. “ATAATAATTTAATACATACACACGTATATCTTTTTT [CACACA_site2041]”: the “gcPBM binding intensity (ln)” value was determined as 9.4. The same measure for “AAAAAAAAAAAAAAAACACACAAACATCAAATTATT [CACACA_site5083]”: 9.58; for “ATACAAAAAGTAAAAAGTACTTAACTAAATATATAA [XGTACX_site2335]”: 9.28. As for “TTTTCAATATATTAATGTACGAATACGCAAATAAGA [XGTACX_site1613]”, the “gcPBM binding intensity (ln)” value is 9.12.

As to GTTTTAACAAAATTAGTGCATTTATCAATTATATAA, the “gcPBM binding intensity (ln)” value amounted to 9.02. The same measure for “TTTTTTTTTTCAATGGCACACATTTTAGATTTATGC [CACACA_site1074]”: 9.15; for “ATAATACTACCTACATGTACTTATATATAAATGAAT [XGTACX_site3417]”: 9.35; for “ACATCAAGCGGACACACACACACACCGACAGACACA [CACACA_site4361]”: 10.2.

Consider AAAGAATCAAGAATAGTGCAAATATGTATAACCTTT, for which the “gcPBM binding intensity (ln)” value was 9.6.

Consider “ATATATATATATGAATCACACACAAAAAATATAGAG [CACACA_site9298]”, for which the “gcPBM binding intensity (ln)” value is 9.95. The same measure for “ATAAAATAATGAAAAACACACATTTTTATTTGTATA [CACACA_site3369]”: 9.36; for “AATAACATGTTATATACACACATTATGAAGTCTTCA [CACACA_site746]”: 9.41; for “AAGATTATAAATATATGTACATAAATATATTATATA [XGTACX_site8056]”: 9.06. The same measure for “ATTGTTTTTTTTTCTTTGTGGAATGAATGAATATAT [XGTACX_negctrl_site603]”: 9.42. Then “TATATATATAAACACACACACATATATATATATATA [CACACA_site4584]”, with 9.72; and TTTAAAATACAGAAGGTGCATTTAACATATTTGTAT, with 9.25.
